Out of some 310,000 compounds screened, about 2,200 (0.71%) showed an effect of 50% or more. The effect is printed as a negative number. The list shows a part of the results.
What follows are molecules tested against human ether-à-go-go-related gene (hERG) potassium channel (human, UniProt Q12809) (assay: primary screen, population patch clamp on CHO cells stably expressing hERG).
Sequence of human ether-à-go-go-related gene (hERG) potassium channel (Q12809 whole entry, looked up): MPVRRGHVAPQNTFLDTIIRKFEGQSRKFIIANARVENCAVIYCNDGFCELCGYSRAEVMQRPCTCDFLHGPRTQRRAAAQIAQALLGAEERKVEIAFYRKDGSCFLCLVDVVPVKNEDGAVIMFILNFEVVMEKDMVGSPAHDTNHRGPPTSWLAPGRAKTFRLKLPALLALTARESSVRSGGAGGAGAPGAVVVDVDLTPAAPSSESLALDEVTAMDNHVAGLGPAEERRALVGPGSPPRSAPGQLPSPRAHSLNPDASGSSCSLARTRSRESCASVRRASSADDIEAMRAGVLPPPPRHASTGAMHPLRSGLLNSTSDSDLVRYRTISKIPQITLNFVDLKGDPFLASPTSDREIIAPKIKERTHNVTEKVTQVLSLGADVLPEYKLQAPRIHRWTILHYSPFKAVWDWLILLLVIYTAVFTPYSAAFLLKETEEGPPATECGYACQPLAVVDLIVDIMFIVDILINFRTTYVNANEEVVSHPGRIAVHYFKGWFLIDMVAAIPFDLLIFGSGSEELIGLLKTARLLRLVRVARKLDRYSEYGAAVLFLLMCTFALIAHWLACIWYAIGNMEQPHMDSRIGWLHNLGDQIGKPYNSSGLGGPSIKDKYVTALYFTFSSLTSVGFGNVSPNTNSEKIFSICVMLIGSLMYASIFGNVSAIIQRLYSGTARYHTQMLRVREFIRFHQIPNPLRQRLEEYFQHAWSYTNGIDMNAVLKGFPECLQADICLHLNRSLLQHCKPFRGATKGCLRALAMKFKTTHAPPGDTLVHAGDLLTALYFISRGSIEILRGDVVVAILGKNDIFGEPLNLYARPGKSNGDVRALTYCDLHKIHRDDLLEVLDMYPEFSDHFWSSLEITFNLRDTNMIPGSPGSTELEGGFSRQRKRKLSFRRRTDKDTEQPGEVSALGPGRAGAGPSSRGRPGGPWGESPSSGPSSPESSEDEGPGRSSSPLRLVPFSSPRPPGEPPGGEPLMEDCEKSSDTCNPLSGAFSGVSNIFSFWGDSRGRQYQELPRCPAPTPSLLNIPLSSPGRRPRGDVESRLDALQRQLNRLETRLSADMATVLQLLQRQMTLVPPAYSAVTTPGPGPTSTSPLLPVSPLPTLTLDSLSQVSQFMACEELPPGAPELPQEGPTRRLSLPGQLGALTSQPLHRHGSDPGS

Compound	hERG current change (%, negative = inhibition) at 1uM [%]
CC1(C)Cc2cccc(C(=O)NCc3ccco3)c2O1	12.5
COCC(=O)Nc1ccc([N+](=O)[O-])cc1OC	1.61
Cl.c1cncc(CNCCc2c[nH]c3ccccc23)c1	5.98
CCOC(=O)/C=C/C(=O)OCC(=O)Nc1c(Cl)cccc1Cl	15.7
CC(=O)NCC(=O)NC(C(=O)Nc1ccc2c(c1)OCCO2)c1ccccc1 (stereo not drawn)	5.47
CSc1ccc(NC(=O)N2CCN(c3nc4ccccc4s3)CC2)cc1	3.41
C=CCOc1ccc(/C=N/NC(=O)CN(c2cc(Cl)ccc2OC)S(=O)(=O)c2ccc(C)c([N+](=O)[O-])c2)cc1	-3.4
O=C(O)c1cc(-c2ccccc2)c(N2CCOCC2)s1	9.67
O=c1c(/C=N/N2CCOCC2)c(O)n(-c2ccccc2)c(=S)n1-c1ccccc1	12.8
CCOC(=O)c1c(/N=C/c2ccc(OC)cc2O)sc2c1CCN(C)C2	4.91
Cc1ccc2c(c1)c(-c1csc(N)n1)c(C)n2C	4.12
COc1ccc(-c2nnn(CC(=O)N(c3cccc(O)c3)C(C)C(=O)NC3CCCC3)n2)cc1OC (stereo not drawn)	7.56
CCOC(=O)C1(CCCc2ccccc2)CCN(CCCn2cccn2)CC1	-84.6
Clc1ccc(-c2nnc(SCc3nc4ccccc4[nH]3)o2)c(Cl)c1	6.79
CC(=O)Nc1ccc(S(=O)(=O)NC2=C(N3CCN(C)CC3)C(=O)c3ccccc3C2=O)cc1	3.6
Cc1ccc([N+](=O)[O-])cc1S(=O)(=O)N1CCN(C)CC1	5.62
O=C(c1cccc(F)c1)N1C2C=CC(C2)C1(C(F)(F)F)C(F)(F)F (stereo not drawn)	9.63
O=C(NC1CCCCC1)C1CC=CCC1C(=O)OCC(Cl)=C(Cl)Cl (stereo not drawn)	-3.41
COc1nc(NCc2ccco2)nc(NC2CCCCC2)n1	2.61
CCOC(=O)Nc1ccc(OC)cc1S(=O)(=O)N1CCCCC1	3.28
CCCn1c(=S)[nH]c2cc(Cl)ccc21	13.7
COC(=O)c1ccc(C(=O)OC)c(NC(=O)CCc2ccc(C)o2)c1	12.6
CCC(C)(C)NC(=O)C1CC(=O)N(CCc2ccc(F)cc2)C1 (stereo not drawn)	13.1

Compound	hERG current change (%, negative = inhibition) at 1uM [%]
COc1ccc2c(CC(=O)N3CCN(S(=O)(=O)c4cccs4)CC3)coc2c1	6.62
CCN1CCCC1CNC(=O)c1c(O)c2c([nH]c1=O)CCCC2 (stereo not drawn)	8.57
CC(C)c1cc(C(=O)N2CCCC(Nc3ccc(F)cc3)C2)n[nH]1 (stereo not drawn)	8.47
CSc1ncccc1C(=O)OCn1nnc2ccccc2c1=O	10.2
COc1cc(/C=C/CO)cc(OC)c1O[C@@H]1O[C@H](CO)[C@@H](O)[C@H](O)[C@H]1O	11.5
CN1C(=O)C(C)(C)c2cc(S(=O)(=O)N3CCC(C(=O)Nc4ccc(Cl)cc4)CC3)ccc21	9.12
c1ccc2[nH]c(-c3cscn3)nc2c1	12.7
CCCNC(=O)CN(c1ccc(F)c(Cl)c1)S(C)(=O)=O	12.6
CCN(CC)C(=O)CSc1nnc(-c2ccccn2)n1Cc1ccccc1	-4.89
Clc1ccc(OCCN2CCCCC2)cc1Cl.O=C(O)C(=O)O	-6.65
COC(=O)c1ccccc1NC(=O)C1CC(=O)N(C2CCCCC2)C1 (stereo not drawn)	-16.9
CCN(CC)S(=O)(=O)c1ccc(C(C)NC(=O)C2CCCN2C(=O)c2cccs2)cc1 (stereo not drawn)	-2.55
COC/C=C/C1=CC2=CC(=O)C(C)(OC(=O)C3CCCC3)C(=O)C2=CO1 (stereo not drawn)	7.45
CCN(C(=O)c1ccco1)C1C2CC3CC(C2)CC1C3 (stereo not drawn)	13.1
CN(C)S(=O)(=O)c1cccc(C(=O)NCC(C)(C)CNC(=O)c2cccc(S(=O)(=O)N(C)C)c2)c1	13.9
O=C(NCCc1ccccc1)c1ccc(NS(=O)(=O)c2ccc3[nH]c(=O)[nH]c3c2)cc1	17
CCOCCCNC(=O)C1CCCN1S(=O)(=O)c1ccc(Cl)cc1 (stereo not drawn)	10.6
COc1ccccc1NC(=O)c1ccc(S(=O)(=O)N2CCC(C)CC2)cc1	6.54
CCCCNC(=S)N/N=C/c1ccc(OCC(=O)Nc2c(C)cc(C)cc2C)c(OC)c1	6.64
Cc1ccc(Nc2nc(C)cc(C)c2C(N)=O)cc1	12.1
COc1ccccc1NC(=O)CSc1nnc(COc2ccccc2C)o1	9.55
Cc1ccc2nc3c(c(N)c2c1)CCN3C.O=C(O)C(=O)O	-0.993
Cc1ccc(S(=O)(=O)N2CCN(C(=O)N3CCOCC3)C2c2ccc(N(C)C)cc2)cc1 (stereo not drawn)	-5.9

Compound	hERG current change (%, negative = inhibition) at 1uM [%]
O=C(Nc1ccc(F)cc1)NC1(C(=O)NCc2ccco2)CCCCC1	19.5
CC1CCN(C(=O)CN(c2ccc3c(c2)OCCO3)S(=O)(=O)c2ccccc2)CC1	0.358
Cc1oc(S(=O)(=O)N(C)C)cc1C(=O)Nc1ccc(F)cc1	9.97
CC(C)(C)c1ccc(C(=O)/C=C2\NC(=O)CS2)cc1	1.5
CCC(C)(C)NC(=O)C(c1ccc(C)cc1)N(Cc1ccco1)C(=O)CCC(=O)Nc1nccs1 (stereo not drawn)	11.8
CCCCn1c(N)c(N(CCOC)C(=O)c2cc(C)oc2C)c(=O)[nH]c1=O	-1.55
COc1ccc(S(=O)(=O)NC2CC3CCC2C3)cc1Br (stereo not drawn)	6
COc1cc(/C=C2\CC/C(=C\c3ccc(OCCO)c(OC)c3)C2=O)ccc1OCCO	17.2
CCOc1ccc(-c2n[nH]c(=S)c3ccccc23)cc1	11.3
O=C(Nc1nnc(Cc2ccc(F)cc2)s1)Nc1ccccc1F	14.7
COc1cc(CN2CCC(n3nccc3NC(=O)C3CC3)CC2)cc(OC)c1	-29.5
CC(Sc1nc2nn(-c3ccccc3)c(=O)c-2c2n1CCCCC2)C(N)=O (stereo not drawn)	1.34
COC(=O)C1=C(c2ccc(Cl)c(C(F)(F)F)c2)C[C@@H]2CC[C@H]1N2C	7.73
CC1CCCCC1NC(=O)C1CCN(c2c3c(nc4ncnn24)CCC3)CC1 (stereo not drawn)	9.65
C/C(=N\Nc1nc(N)cc(Cl)n1)c1cccc(N)c1	-6.08
CCn1cnc2c(Nc3cc(F)cc(F)c3)nc(C#N)nc21	19.4
C=CCc1ccccc1OCC(O)CNC1CCCC1.Cl (stereo not drawn)	15.5
O=C1c2ccccc2S(=O)(=O)N1CCOc1ccccc1	10.7
Cc1ccsc1/C=N/NC(=O)c1c[nH]c2ccccc12	12
CCn1c(SCC(=O)N(Cc2ccccc2)C2CCS(=O)(=O)C2)nc2ccccc2c1=O (stereo not drawn)	-12.2
O=C(/C=C\c1ccccc1)NCC(=O)N/N=C/c1ccc(O)cc1O	4.12
COc1cccc(NC(=O)CSc2ccc3nnc(CCNC(=O)c4ccccc4)n3n2)c1	19.1
Cc1ccc(C(=O)COC(=O)CNC(=O)CNC(=O)c2ccc(C)cc2)cc1	-0.593

Compound	hERG current change (%, negative = inhibition) at 1uM [%]
CN(C)CCNC(=O)NC(=O)c1ccc(Cl)cc1	3.99
CC(=O)NC(c1ccc(C(C)C)cc1)c1ccc2cccnc2c1O (stereo not drawn)	16.1
Cc1ccc(S(=O)(=O)NC(Cc2cnc[nH]2)C(=O)O)cc1 (stereo not drawn)	10.4
O=C(O)c1ccc2ccc3ccccc3c2c1	4.22
CSc1ccccc1NC(=O)c1cc(C)on1	11
CCC(=O)Nc1cccc(-c2nc3ncccc3o2)c1C	12.3
O=C(NCc1ccc2c(c1)OCO2)c1ccc(Cl)s1	8.13
CC(=O)Nc1ccc(C(=O)NNC(=O)c2ccc(Cl)cc2)cc1	9.32
CCc1nnc(NS(=O)(=O)c2ccc(NC(=O)COc3ccc(Cl)c(C)c3)cc2)s1	13.5
Nn1c(COc2ccccc2F)nnc1SCC(=O)NC1CCCC1	9.93
Cc1ccc(NC(=O)C2CC(=O)n3ncnc3N2)cc1C (stereo not drawn)	6.92
CN(C)C(=O)c1sccc1Oc1ccc(F)cc1[N+](=O)[O-]	11.7
O=C(CN1C(=O)c2ccccc2S1(=O)=O)Nc1ccon1	14.3
Cc1ccc(CN2CCN(/N=C/C=C/c3ccccc3[N+](=O)[O-])CC2)cc1	0.197
CS(=O)(=O)NCCn1ccc2ccccc21	3.22
Cc1nnc(NC(=O)Oc2ccccc2)s1	8
CCCNC(=S)NCCN1CCCCC1.O=C(O)C(=O)O	8.51
O=C1/C(=C2/NCCN2C2CC(=O)N(c3ccccc3)C2=O)CC/C1=C\c1ccccc1 (stereo not drawn)	-2.16
COc1ccccc1NCC(=O)n1nc(C)cc1C	15.5
COc1ccc(CC(=O)Nc2ccc(-c3cn4ccccc4n3)cc2)cc1OC	16.4
Cc1cccc(C)c1NC(=O)CNC(=O)c1c(C)nn(-c2ccccc2)c1C	0.617
